Experiments:
[1] = Acute toxicity in the rat; conditions: for Dead/Treated within 21 days: first experiment; for Dead/Treated within 7 days: second experiment
[2] = tested on: five strains of vibrio cholerae; experiment: Summary of effect on five strains of vibrio cholerae; conditions: 10 μg/ml of CO-1, five strains
[3] = Acute toxicity in the rabbit by esophageal administration; format: in vivo
[4] = Subacute toxicity in the mouse, gastric gavage 15 days; conditions: 24 hrs. after last dose
[5] = Acute toxicity in the guinea pig by esophageal administration; format: in vivo

## Nc1nccc(C=Cc2c[n+]([O-])c3ccccc3[n+]2[O-])n1 [CO-1, 2-[2-(2-amino-4-pyrimidinyl)ethenyl]-quinoxaline 1,4-dioxide]
[1]; female, endoperitoneal, 500 mg/kg
  Dead/Treated within 21 days: 2/4
[1]; female, esophageal, 4000 mg/kg
  Dead/Treated within 21 days: 0/4
  Dead/Treated within 7 days: 0/4
[1]; male, endoperitoneal, 500 mg/kg
  Dead/Treated within 21 days: 1/4
[1]; male, esophageal, 4000 mg/kg
  Dead/Treated within 21 days: 0/4
  Dead/Treated within 7 days: 0/4
[1]; female, intraperitoneal, 500 mg/kg
  Dead/Treated within 7 days: 0/4
[1]; male, intraperitoneal, 500 mg/kg
  Dead/Treated within 7 days: 2/4
[2]
  growth of the organisms after 48 hours: no growth of 3 of the organisms after 48 hours
[3]; 500 mg/kg
  Dead/Treated within 7 days: 0/2
[3]; 1000 mg/kg
  Dead/Treated within 7 days: 0/4
[3]; 2000 mg/kg
  Dead/Treated within 7 days: 0/2
[4]; CO-1 in adraganth gum
  SGOT: 132 Units/ml
[4]; CO-1 in water
  SGOT: 124 Units/ml
[5]; 500 mg/kg
  Dead/Treated within 21 days: 0/4
[5]; 1000 mg/kg
  Dead/Treated within 21 days: 1/4
[5]; 2000 mg/kg
  Dead/Treated within 21 days: 5/6
[5]; 4000 mg/kg
  Dead/Treated within 21 days: 6/6
